{"source": "PubChem BioAssay AID1508624", "about": "(National Center for Advancing Translational Sciences (NCATS), 2021)", "note": "Screen size: about 48,000 compounds; about 120 (0.25%) were called active. Not shown: some 4% with an inconclusive outcome. Calls come from the whole dose curve; as a rule, active = well fitted activation curve with a large enough effect; inconclusive = small, poorly fitted or top-dose-only effect, or another doubt; inactive = no such curve, though single readings can be large or run the other way. The list shows a part of the results."}
{"assay": "Primary qHTS for Identification of Small Molecule Activators of Huntingtin-Antisense Promoter Activity; note: nearly all actives have a fitted effect of over 55% in size", "settings": "HEK293 HTT-AS promoter firefly luciferase reporter, 24 h; series mostly up to 57.5 µM; activity change, positive = activation: at the top concentration", "summary_of_the_method": "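Firefly luciferase signal from promoter-reporter HEK293 cells was scaled between vehicle (0%) and zero RLU (-100%). Compounds were tested at final concentrations of up to 57.5 uM over 24 h at 37 degrees C. PTC124 at 50 uM final served as control inhibitor.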"}
{"smiles": "COc1ccc(CCNc2ncnc3onc(C)c23)c(OC)c1", "activity change, positive = activation": "inactive: -84.1%"}
{"smiles": "COCCCn1c(=N)c(C(=O)NC2CCCCC2)cc2c(=O)n3cc(C)ccc3nc21", "activity change, positive = activation": "inactive: 3.48%"}
{"smiles": "CC1CCCCN1CCCNC(=O)Cn1ncc2c3ccccc3n(C)c2c1=O", "note": "(configuration not stated)", "activity change, positive = activation": "inactive: -7.12%"}
{"smiles": "Cc1ccc(S(=O)(=O)c2cc3cc(C(=O)Nc4ccc(C)cc4C)ccc3oc2=O)cc1", "activity change, positive = activation": "inactive: -6.9%"}
{"smiles": "CCc1ccccc1NC(=O)c1ccc(F)c(S(=O)(=O)N2CCN(c3cccc(Cl)c3)CC2)c1", "activity change, positive = activation": "inactive: -20.4%"}
{"smiles": "COc1cccc(C(=O)N(Cc2ccc(C)o2)C2CCS(=O)(=O)C2)c1", "note": "(configuration not stated)", "activity change, positive = activation": "inactive: -11.6%"}
{"smiles": "COc1ccc(-c2cc(C(F)(F)F)nc(NCc3ccc(F)cc3)n2)cc1", "activity change, positive = activation": "inactive: -24.5%"}
{"smiles": "Cc1ccc(O)c(-c2n[nH]c3c2C(c2ccc(F)cc2)N(Cc2ccco2)C3=O)c1", "note": "(configuration not stated)", "activity change, positive = activation": "inactive: -35.4%"}
{"smiles": "O=C(COCc1cc(-c2cccs2)on1)Nc1cc(C(F)(F)F)ccc1Cl", "activity change, positive = activation": "inactive: 11.3%"}
{"smiles": "CC(C)OCCCNC(=O)CCCN1C(=O)CCn2nc(-c3cccn3C)cc21", "activity change, positive = activation": "inactive: -14.7%"}
{"smiles": "Cc1c(O)cccc1C(=O)N[C@@H](CSc1ccccc1)[C@H](O)CN1C[C@H]2CCCC[C@H]2C[C@H]1C(=O)NC(C)(C)C", "activity change, positive = activation": "inactive: -44.2%"}
{"smiles": "CCN(c1ccccc1)S(=O)(=O)c1ccc(NC(=O)c2nc(SC(C)C)ncc2Cl)cc1", "activity change, positive = activation": "inactive: -1.82%"}
{"smiles": "Cc1cccc(CNC(=O)CN2C(=O)CSc3c2c(C)nn3-c2ccccc2)c1", "activity change, positive = activation": "inactive: -4.79%"}
{"smiles": "CCOC(=O)c1cnc2ccc(OCC)cc2c1Nc1ccc(OCc2ccccc2Cl)cc1", "activity change, positive = activation": "inactive: -42%"}
{"smiles": "COc1cc(C(CC(=O)Nc2ncccc2C)N2Cc3ccccc3C2=O)cc(OC)c1OC", "note": "(configuration not stated)", "activity change, positive = activation": "inactive: -9.7%"}
{"smiles": "CC(=O)c1cc(-c2ccc(F)cc2)n(CCC(=O)Nc2nc3ccc(C)cc3s2)c1C", "activity change, positive = activation": "inactive: -31.6%"}
{"smiles": "CC1(C)CC(=O)c2c(C(F)(F)F)nn(-c3ccc(C(N)=O)c(NC4CCC(O)CC4)c3)c2C1", "note": "(configuration not stated)", "activity change, positive = activation": "inactive: -62.2%"}
{"smiles": "O=C(OCc1cc(=O)n2nc(C3CC3)sc2n1)c1ccc(NC(=O)c2ccccc2F)cc1", "activity change, positive = activation": "inactive: 12.4%"}
{"smiles": "Cc1ccc(C(=O)N2CCC(C)CC2)cc1NC(=O)c1nsc2ccccc12", "activity change, positive = activation": "inactive: -15.9%"}
{"smiles": "CCOc1ccc(Br)cc1C1NC(=O)c2c(sc3c2CCN(C)C3)N1", "note": "(configuration not stated)", "activity change, positive = activation": "inactive: 13.9% [at 11.5 µM, percent change from vehicle, -100% = no light]"}
{"smiles": "CN1CCN(C(CNC(=O)c2c(F)cccc2F)c2ccc3c(c2)OCO3)CC1", "note": "(configuration not stated)", "activity change, positive = activation": "inactive: -11.6%"}
{"smiles": "Cc1cccc(N2CCN(C(=O)c3cc4ccc5cccnc5c4[nH]3)CC2C)c1", "note": "(configuration not stated)", "activity change, positive = activation": "inactive: -13.8%"}
{"smiles": "O=c1c2ccccc2n(Cc2cccc(Cl)c2)c(=O)n1Cc1ccccc1", "activity change, positive = activation": "inactive: -32.1%"}
{"smiles": "CCN(C(=O)Cn1ncc2c(=O)oc3ccccc3c21)c1ccccc1F", "activity change, positive = activation": "inactive: -5.29%"}
{"smiles": "COCCc1nn2c(=O)cc(COC(=O)c3ccc(Br)cc3)nc2s1", "activity change, positive = activation": "inactive: -3.54%"}
{"smiles": "CCC(C)NC(=O)c1sc2nc3n(c(=O)c2c1C)CCC3", "note": "(configuration not stated)", "activity change, positive = activation": "inactive: 5.25%"}
{"smiles": "COCCCNc1nc(NCc2ccc(C)cc2)c2cnn(C)c2n1", "activity change, positive = activation": "inactive: -18.8%"}
{"smiles": "COc1cccc2c1cc1c(=O)n(CC(=O)N3CCC(C)CC3)nc(C)n12", "activity change, positive = activation": "inactive: -4.36%"}
{"smiles": "COc1ccccc1-c1nc(SCC(=O)c2ccc(Cl)cc2)n[nH]1", "activity change, positive = activation": "inactive: -12.7%"}
{"smiles": "CCC(=O)Nc1sc2c(c1C(=O)Nc1ccc(Br)cc1)CCCCC2", "activity change, positive = activation": "inactive: -8.18%"}
{"smiles": "Cc1cc(C)c(NC(=O)CSc2nc3c([nH]c4ccccc43)c(=O)n2C)c(C)c1", "activity change, positive = activation": "inactive: -1.3%"}
{"smiles": "Nc1ccn([C@@H]2O[C@H](CO)[C@@H](O)[C@H]2O)c(=O)n1", "activity change, positive = activation": "inactive: -29.2%"}
{"smiles": "O=C(CN1CCN(Cc2ccc3c(c2)OCO3)CC1)N1c2ccccc2Sc2ccccc21", "activity change, positive = activation": "inactive: -2.63%"}
{"smiles": "COc1ccc(CCNC(=O)c2ccc(Cn3c(=O)[nH]c4cc(OC)c(OC)cc4c3=O)cc2)cc1OC", "activity change, positive = activation": "inactive: -7.21%"}
{"smiles": "CCCCNC(=O)CN1CCN(c2ncc(NC(=O)c3ccc(Cl)cc3)cc2C(=O)O)CC1", "activity change, positive = activation": "inactive: -11.3%"}
{"smiles": "COc1cc(NC(=O)C2CCN(c3nc4ccccc4nc3C(F)(F)F)CC2)cc(OC)c1", "activity change, positive = activation": "inactive: -18.3%"}
{"smiles": "CCc1ccccc1N(CC)C(=O)C1CCN(c2ncnc3c2nc2n3CCCCC2)CC1", "activity change, positive = activation": "inactive: -30.1%"}
{"smiles": "CCOC(=O)C(=O)c1csc(NC=O)n1", "activity change, positive = activation": "inactive: -2.31%"}
{"smiles": "CCCOc1cccc(C2c3c(oc4ccc(F)cc4c3=O)C(=O)N2c2nc(C)c(C(C)=O)s2)c1", "note": "(configuration not stated)", "activity change, positive = activation": "inactive: -24.5%"}
{"smiles": "Cc1cc2n(n1)CCC(=O)N2Cc1ccc(C(=O)Nc2cccc(C(F)(F)F)c2)cc1", "activity change, positive = activation": "inactive: -28.7%"}
{"smiles": "Cc1ccc(C)c(NC(=O)CSc2nc(=O)n(Cc3ccncc3)c3c2CCC3)c1", "activity change, positive = activation": "inactive: -9.14%"}
{"smiles": "CC(=O)N1c2ccc(S(=O)(=O)NCCC(=O)N(C)Cc3ccccc3)cc2CC1C", "note": "(configuration not stated)", "activity change, positive = activation": "inactive: -14.3%"}
{"smiles": "COC(=O)c1cc2sc(C)cc2n1Cc1nc(-c2ccc(C)cc2)oc1C", "activity change, positive = activation": "inactive: -10.4%"}
{"smiles": "CC(C)c1ccc(Nc2c(-c3ccc(N(C)C)cc3)nc3cnccn23)cc1", "activity change, positive = activation": "inactive: -1.23%"}
{"smiles": "Cc1ccc(Nc2c(-c3ccc(C)cc3)nc3c(C)cccn23)cc1", "activity change, positive = activation": "inactive: -5.77%"}
{"smiles": "O=C(NCCc1ccc(Cl)cc1)C(=O)NCC(c1cccs1)S(=O)(=O)c1ccccc1", "note": "(configuration not stated)", "activity change, positive = activation": "inactive: -25.2%"}
{"smiles": "CCc1cccc(C)c1NC(=O)CCS(=O)(=O)c1ccc2c(c1)oc(=O)n2C", "activity change, positive = activation": "inactive: -4.37% [at 11.5 µM, percent change from vehicle, -100% = no light]"}
{"smiles": "COc1cccc(CN(C(=O)c2oc3ccccc3c2C)C2CCS(=O)(=O)C2)c1", "note": "(configuration not stated)", "activity change, positive = activation": "inactive: -7.57%"}
{"smiles": "O=C(Cc1ccc(Cl)cc1)Nc1ccc2oc(-c3ccccc3F)nc2c1", "activity change, positive = activation": "inactive: -32.1%"}
{"smiles": "CNC(=O)c1c(NC(=O)Cc2coc3ccc(OC)cc23)sc2c1CCCC2", "activity change, positive = activation": "inactive: -12.5%"}
{"smiles": "CN(C)CCC(c1ccccc1)c1ccccn1", "note": "(configuration not stated)", "activity change, positive = activation": "inactive: 0.0735%"}
{"smiles": "COc1cc(OC)cc(C(=O)NCCc2csc(-c3ccc(C(F)(F)F)cc3)n2)c1", "activity change, positive = activation": "inactive: -30.6%"}
{"smiles": "Cc1ccc(NC(=O)CCN2C(=O)c3ccccc3Sc3ncccc32)c(Cl)c1", "activity change, positive = activation": "inactive: -21.7%"}
{"smiles": "COc1ccccc1NC(=O)c1sc2nc(C)c(C(=O)Nc3ccc(C)cc3C)c(-c3ccccc3Cl)c2c1N", "activity change, positive = activation": "inactive: -10.6%"}
{"smiles": "Cc1ccc2oc(=O)c3cc(C(=O)NCCc4ccc(Cl)cc4)sc3c2c1", "activity change, positive = activation": "inactive: -3.21%"}
{"smiles": "CCS(=O)(=O)N1CCc2cc(C(=O)NCc3ccccc3Cl)ccc21", "activity change, positive = activation": "inactive: -12.1%"}
{"smiles": "COc1ccc(NC(=O)C(C(C)C)N2Cc3ccccc3C2=O)cc1", "note": "(configuration not stated)", "activity change, positive = activation": "inactive: -16%"}
{"smiles": "CCOc1ccccc1NS(=O)(=O)c1cc(-c2cnc(C3CC3)o2)ccc1C", "activity change, positive = activation": "inactive: -23.5%"}
{"smiles": "Cc1ccc(-n2nc3c(=O)n(C(C)C(=O)NCc4ccccc4C)nc(C)c3c2C)cc1", "note": "(configuration not stated)", "activity change, positive = activation": "inactive: -43%"}
{"smiles": "CCc1ccccc1NC(=O)NC(CC)Cn1nnc2ccccc2c1=O", "note": "(configuration not stated)", "activity change, positive = activation": "inactive: -4.55%"}
{"smiles": "O=C(c1cc2ccc3cccnc3c2[nH]1)N1CCN(c2cccc(Cl)c2)CC1", "activity change, positive = activation": "inactive: -27.3%"}
{"smiles": "Cc1ccc(C)c(CNC(=O)c2sc3ncnc(N(C)C4CCCCC4)c3c2C)c1", "activity change, positive = activation": "inactive: -13.6%"}
{"smiles": "Cc1cc(F)ccc1NC(=O)CCSc1nc(-c2ccco2)cc(C(F)(F)F)n1", "activity change, positive = activation": "inactive: 3.54% [at 11.5 µM, percent change from vehicle, -100% = no light]"}
{"smiles": "COC(=O)COc1ccc(Oc2nc(NC(C)(C)C)nc(N(C)C)n2)nn1", "activity change, positive = activation": "inactive: -15.4%"}
{"smiles": "Cc1ccc(C(=O)NC2(C(F)(F)F)N=C(c3ccccc3)N(C3CCCCC3)C2=O)cc1", "note": "(configuration not stated)", "activity change, positive = activation": "inactive: -24.3%"}
{"smiles": "COc1ccc(CNC(=O)c2cn(-c3cccc(OC)c3)c(=O)c3ccccc23)cc1", "activity change, positive = activation": "inactive: -14.6%"}
{"smiles": "CCOC(=O)c1c(C)c(-c2ccccc2)n(CC(=O)Nc2cccc(C)c2C)c1C", "activity change, positive = activation": "inactive: -10.6%"}
